{"source": "patent US9974865B2", "about": "“Antibody drug conjugates (ADC) that bind to FLT3 proteins” (AGENSYS, INC., priority 2015, dated 2018)", "molecules": {"B1": {"name": "CHv62.21: FLT3 MAb, human IgG1/kappa, heavy chain SEQ ID NO: 9, light chain SEQ ID NO: 10, CHO cell ATCC PTA-121831 (antibody, listed as Homo sapiens)", "heavy": "EVQLVESGGGLVRPGGSLRLSCAASGFTFSGYSINWVRQAPGKGLEWVSSISSSSNYIYYADSVKGRFTISRDNAKNSLYLQMNSLRAEDTAVYYCAREGFIAGTTFDAFDIWGQGTMVTVSS[skipping human IgG1 constant region]", "light": "DIQMTQSPSSLSASVGDRVTITCRASQGIRNDLGWYQQKPGKAPKRLIYAASSLQSGVPSRFSGSGSGTEFTLTISSLQPEDFATYYCLQHNGFPYTFGQGTKLEIKRTVAAPSVFIFPPSDEQLKSGTASVVCLLNNFYPREAKVQWKVDNALQSGNSQESVTEQDSKDSTYSLSSTLTLSKADYEKHKVYACEVTHQGLSSPVTKSFNRGEC", "modifications": "CHv62.21 heavy chain; CHv62.21 light chain"}}, "key": {"EOL-1 cells": {"test_system": "EOL-1 cells", "assay": "FACS binding to cell lines", "design": "species or system human", "details": "EOL-1 (AML); antibody 10 ug/ml", "description": "(§1) CHv62.21 was tested for binding to AML and B-ALL cell lines grown in vitro. (See, FIG. 15A-M). Briefly, CHv62.21 and an isotype matched control antibody were biotinylated using NHS LC biotin. In vitro, exponentially grown cancer cell lines were used for all experiments. Cells were harvested by and washed by centrifugation. Cells were Fc blocked to reduce non-specific binding. Antibodies were diluted to 10 ug/ml final concentration and co-incubated with cells at 4° C. for 1 hour. At the end of the incubation, cells were washed and incubated with secondary detection Streptavidin-PE antibody at a final 1:200 (2.5 ug/ml) dilution for 1 hour at 4° C. After washing un-bound secondary antibody, cells were analyzed by FACS and geometric mean fluorescence was determined and reported. Fluorescence ratio was calculated as follows: Geo mean cHv62.21/Geo mean isotype control=MFR, a measure of fold expression above isotype control."}, "Karpas-299 cells": {"test_system": "Karpas-299 cells", "assay": "FACS binding to cell lines", "design": "species or system human", "details": "Karpas-299 (ALCL)", "description": "as §1"}, "MOLM-13 cells": {"test_system": "MOLM-13 cells", "assay": "FACS binding to cell lines", "design": "species or system human", "details": "MOLM-13 (AML); antibody 10 ug/ml", "description": "as §1"}, "MONOMAC-1 cells": {"test_system": "MONOMAC-1 cells", "assay": "FACS binding to cell lines", "design": "species or system human", "details": "MONOMAC-1 (AML); antibody 10 ug/ml", "description": "as §1"}, "MV-4-11 cells": {"test_system": "MV-4-11 cells", "assay": "FACS binding to cell lines", "design": "species or system human", "details": "MV-4-11 (AML); antibody 10 ug/ml", "description": "as §1"}, "NALM-1 cells": {"test_system": "NALM-1 cells", "assay": "FACS binding to cell lines", "design": "species or system human", "details": "NALM-1 (CML); antibody 10 ug/ml", "description": "as §1"}, "OCI-AML2 cells": {"test_system": "OCI-AML2 cells", "assay": "FACS binding to cell lines", "design": "species or system human", "details": "OCI-AML2 (AML); antibody 10 ug/ml", "description": "as §1"}, "PL-21 cells": {"test_system": "PL-21 cells", "assay": "FACS binding to cell lines", "design": "species or system human", "details": "PL-21 (AML); antibody 10 ug/ml", "description": "as §1"}, "REH cells": {"test_system": "REH cells", "assay": "FACS binding to cell lines", "design": "species or system human", "details": "REH (ALL); antibody 10 ug/ml", "description": "as §1"}, "RS4; 11 cells": {"test_system": "RS4; 11 cells", "assay": "FACS binding to cell lines", "design": "species or system human", "details": "11 (B-ALL), antibody 10 ug/ml", "description": "as §1"}, "SEM cells": {"test_system": "SEM cells", "assay": "FACS binding to cell lines", "design": "species or system human", "details": "SEM (B-ALL); antibody 10 ug/ml", "description": "as §1"}, "SKM-1 cells": {"test_system": "SKM-1 cells", "assay": "FACS binding to cell lines", "design": "species or system human", "details": "SKM-1 (AML); antibody 10 ug/ml", "description": "as §1"}, "THP-1 cells": {"test_system": "THP-1 cells", "assay": "FACS binding to cell lines", "design": "species or system human", "details": "THP-1 (AML); antibody 10 ug/ml", "description": "as §1"}, "cell surface FLT3": {"target": "cell surface FLT3 (Homo sapiens, UniProt P36888)", "assay": "Binding to cell surface FLT3 by flow cytometry", "description": "To express CHv62.21 MAb recombinantly in transfected cells, v62.21 hybridoma MAb variable heavy and light chain sequences were cloned upstream of the human heavy chain IgG1 and human light chain Igκ constant regions respectively. The complete CHv62.21 MAb human heavy chain and light chain cassettes were cloned downstream of the CMV promoter/enhancer in a cloning vector. The recombinant CHv62.21 MAb expressing construct was transfected into CHO cells for stable expression in the Lonza GS system (Lonza, Basel, Switzerland). The CHv62.21 MAb secreted from recombinant CHO cells was purified and evaluated for binding to cell surface FLT3 by flow cytometry.\nTo express CHv62.21pAF recombinantly in transfected cells, v62-1b21 hybridoma MAb variable heavy and light chain sequences were cloned upstream of the human heavy chain IgG1 and human light chain Igκ constant regions respectively. The complete CHv62.21 MAb human heavy chain and light chain cassettes were cloned downstream of the CMV promoter/enhancer in a cloning vector. […] The CHv62.21pAF secreted from the stable subclone was purified and evaluated for binding to cell surface FLT3 by flow cytometry."}, "FLT3 recombinant protein": {"target": "FLT3 recombinant protein (Homo sapiens, UniProt P36888)", "assay": "Binding to FLT3 recombinant protein by ELISA", "details": "CHO-derived vs hybridoma-derived MAb", "description": "The CHv62.21 MAb secreted from recombinant cells is also evaluated for binding to FLT3 recombinant protein by ELISA."}}, "note": "Entries after “also recorded” stand apart in the source; their conditions may differ."}
{"molecule": "B1", "values": [{"measurement": "Geometric Mean (FACS)", "setting": "EOL-1 cells", "result": 14000}, {"measurement": "MFR (Geo mean cHv62.21/Geo mean isotype control)", "setting": "Karpas-299 cells", "result": 1}, {"measurement": "Geometric Mean (FACS)", "setting": "Karpas-299 cells; antibody 10 ug/ml, 4° C. 1 hour", "result": 634}, {"measurement": "Geometric Mean (FACS)", "setting": "MOLM-13 cells", "result": 14000}, {"measurement": "Geometric Mean (FACS)", "setting": "MONOMAC-1 cells", "result": 11400}, {"measurement": "Geometric Mean (FACS)", "setting": "MV-4-11 cells", "result": 2875}, {"measurement": "Geometric Mean (FACS)", "setting": "NALM-1 cells", "result": 12900}, {"measurement": "Geometric Mean (FACS)", "setting": "OCI-AML2 cells", "result": 5646}, {"measurement": "Geometric Mean (FACS)", "setting": "PL-21 cells", "result": 3715}, {"measurement": "Geometric Mean (FACS)", "setting": "REH cells", "result": 16200}, {"measurement": "Geometric Mean (FACS)", "setting": "RS4; 11 cells", "result": 18400}, {"measurement": "Geometric Mean (FACS)", "setting": "SEM cells", "result": 132000}, {"measurement": "Geometric Mean (FACS)", "setting": "SKM-1 cells", "result": 3208}, {"measurement": "Geometric Mean (FACS)", "setting": "THP-1 cells", "result": 19700}, {"measurement": "binding to cell surface FLT3", "setting": "cell surface FLT3", "result": "binds to FLT3 on the cell surface; also recorded: binds FLT3 similarly to the v62.21 purified from hybridoma"}, {"measurement": "binding to FLT3 recombinant protein", "setting": "FLT3 recombinant protein", "result": "identical between MAb material derived from CHO and from hybridoma cells"}]}
